Values joined by “and” are separate entries in the source; they are usually repeats but may differ in a detail not shown here. Equal entries are not always repeated. The campaign covered roughly 140,000 compounds. About 240 (0.17%) were called active. The shares of active, inactive and inconclusive entries below differ from those in the screen. Calls follow the shape of the dose curve; as a rule, active = well fitted inhibition curve with a large enough effect; inconclusive = small, poorly fitted or top-dose-only effect; inactive = no such curve, though single readings can be large or run the other way. A potency beside an inconclusive call is a rough fit, not a confirmed value.
Assay: Primary qHTS assay for inhibitors of alpha-synuclein gene (SNCA) expression; also: nearly all actives have a fitted effect of over 45% in size
Settings: HEK-293 SNCA-luciferase knock-in, luminescence, 24 h; series mostly up to 57.2 µM
Potency is read from the fitted curve at half-maximal effect; tags tell the direction and shape of the fitted curve.

Structure (SMILES)	Potency
COc1ccc(CCNC(=O)CN2C(=O)NC3(CCOCC3)C2=O)cc1OC	inconclusive: 35.5 µM [inhibitor, single point]
COCCC(=O)N1Cc2ccccc2OC2(CCN(C(C)C)CC2)C1	inactive
Cc1ccc(-c2ccc3nnc(CNC(=O)c4cc(F)ccc4Cl)n3n2)cc1	inactive
CCN1c2cc(C(=O)Nc3ccc4c(c3)OCCO4)ccc2C(=O)N2CCCCC21 (centres undefined)	inconclusive: 39.8 µM [inhibitor, single point]
CC(C)c1nnc(C2CN(C(=O)CCC3CCCCC3)CC23CCOCC3)o1 (centres undefined)	inconclusive: 12.6 µM [inhibitor, partial curve]
COc1ccc(-n2nc3n(c2=O)CCN(Cc2ccsc2)C3)cc1	inactive
CN1CC(=O)N(c2ccccc2F)Cc2c1ncnc2N1CCN(c2ccccn2)CC1	inactive
Cc1cc(C)cc(NC(=O)CSc2nc3c(oc4ccccc43)c(=O)n2-c2ccccc2F)c1	inconclusive: 3.16 µM [inhibitor, single point]
COc1ccc(C2(C(=O)N3CCC(Cc4nc(-c5ccc(F)cc5)no4)CC3)CC2)cc1	inconclusive: 11.2 µM [inhibitor, partial curve, poor fit]
CCOc1ccc(NC(=O)CCNS(=O)(=O)c2ccc3c(c2)oc(=O)n3C)cc1	inconclusive: 10 µM [inhibitor, partial curve]
COCC(=O)N[C@@H]1CN(Cc2ccccc2C(F)(F)F)C[C@H]1CO	inactive
O=C(COc1ccc(-c2nnc3n2CCCC3)cc1)N1CCN(c2ccc(F)cc2)CC1	inconclusive: 39.8 µM [inhibitor, single point]
COc1ccccc1-n1nc(CC(N)=O)nc1C1CCCCn2nnnc21 (centres undefined)	inconclusive: 5.62 µM [inhibitor, single point]
O=C(NCCc1ccccn1)c1cnc2c(c1)N(C(=O)CCc1ccccc1)CCC2	inconclusive: 35.5 µM [inhibitor, partial curve, poor fit]
COc1ccccc1-c1ccnc(-c2nnc(C)n2C2CCCCC2)c1	inactive
CCOc1cc(C(=O)N2CC(=O)Nc3ccc(C)cc3C2c2ccccc2)cc(OCC)c1OCC (centres undefined)	inconclusive: 22.4 µM [inhibitor, partial curve]
COc1ccc(S(=O)(=O)N2CCc3c(C(=O)Nc4cccc(C)c4)cccc32)cc1	inconclusive: 8.91 µM [inhibitor, full curve, poor fit]
Cc1ccc(-n2nc(C)c(C(=O)NCCCN3CCN(c4ccc(F)cc4)CC3)c2-n2cccc2)cc1	inconclusive: 39.8 µM [inhibitor, single point]
Cc1cc(C)cc(OC(C)C(=O)Nc2nonc2-c2ccc(Br)cc2)c1 (centres undefined)	inconclusive: 20 µM [inhibitor, single point]
O=C(C1CCCN1c1nc2ncccc2o1)N1CCCC1 (centres undefined)	inactive
CCCn1c(SCc2nc(-c3cc(OC)ccc3OC)no2)nnc1-c1ccc(Cl)cc1	inconclusive: 0.355 µM [inhibitor, single point]
CCC(CC)CN1C[C@]23C=C[C@H](O2)C(C(=O)N(C)Cc2nccs2)C3C1=O (some centres undefined)	inactive
O=C(NCCc1ccc(Cl)cc1)c1nc2sccn2c1-c1cccnc1	inactive

Structure (SMILES)	Potency
CC(C)N1CCC2(CC1)CN(C(=O)C1CCOCC1)Cc1ccccc1O2	inactive
Cc1ccc(-n2ncc(C(=O)Nc3ccc4c(c3)OCCO4)c2C2CCN(C(=O)OC(C)(C)C)CC2)cc1	inactive
N#Cc1ccccc1C(=O)N1CCOC(c2ccc(Cl)c(Cl)c2)C1 (centres undefined)	inconclusive: 8.91 µM [inhibitor, partial curve, poor fit]
O=C(CCc1nnc2n(Cc3ccccc3Cl)c(=O)c3ccccc3n12)Nc1ccc(F)cc1	inconclusive: 2.24 µM [inhibitor, single point]
COC(=O)N1CCCC(C(=O)N2CCC(N3Cc4cccn4C3=O)CC2)C1 (centres undefined)	inconclusive: 7.94 µM [inhibitor, partial curve]
O=C(Cn1ccn2nc3c(c2c1=O)CCCCC3)Nc1ccc(F)c(F)c1	inconclusive: 15.8 µM [inhibitor, partial curve, poor fit]
Cc1cc(C)c(CNC(=O)c2nc(Nc3ccccc3)cc3[nH]ccc23)c(=O)[nH]1	inactive
CN(C)C(=O)C1CCc2nnc(-c3ccc(F)cc3)n21 (centres undefined)	inactive
COc1ccc(C2(C(=O)N[C@@H]3CN(c4ccncn4)C[C@H]3CN(C)C)CC2)cc1	inconclusive: 3.16 µM [inhibitor, single point]
CCc1noc([C@@H]2CC(F)(F)CN2C(=O)CCn2cccn2)n1	inactive
Cc1ccccc1-c1nc(N2CCOCC2)cc2c1CN(CC1CC1)C2=O	inactive
CCn1cc2nc(SCc3ccccc3Cl)n(CCc3ccccc3)c(=O)c2n1	active: 14.1 µM
COc1cccc(-c2cncnc2NCc2cccs2)c1	inconclusive: 25.1 µM [inhibitor, single point]
CCOc1ccccc1C(=O)N1CCC(N2C(=O)CCC2C(=O)NCc2ccccc2)CC1 (centres undefined)	inactive
CCCN(C)C(=O)c1cn2cc(-c3cccc(Cl)c3)n(CC=C(C)C)c(=O)c2n1	inconclusive: 14.1 µM [inhibitor, partial curve, poor fit]
COc1ccc(NC(=O)CC2CCCN(c3cnn(CC4CC4)c(=O)c3)C2)cc1 (centres undefined)	inconclusive: 39.8 µM [inhibitor, single point]
CCC(C)NC(=O)N1CC(n2cc(C(=O)NCc3ccncc3)nn2)C1 (centres undefined)	inconclusive: 22.4 µM [inhibitor, single point]
COc1ccc(C2C(=O)N(C3CCCCC3)CC(=O)N2CCC2=CCCCC2)cc1 (centres undefined)	active: 22.4 µM
COc1ccc(CN2C[C@@H]3C[C@@H](C(N)=O)N(C(=O)CC4CCCC4)c4cccc(c43)C2=O)cc1	inconclusive: 3.55 µM [inhibitor, partial curve, poor fit]
COc1ccc(Nc2cnc3ccc(-c4ccccc4OC)nn23)cc1OC	inactive
O=C(NCc1nnc2n1C(C(=O)NCc1ccc(F)cc1)CC2)Nc1cccnc1 (centres undefined)	inconclusive: 39.8 µM [inhibitor, single point]
O=C(NCc1cc2n(n1)CCNC2)C1CCCN(c2ccccn2)C1 (centres undefined)	inconclusive: 17.8 µM [inhibitor, single point]
COc1ccc(CN2C=C(C(=O)OCc3noc(-c4ccccc4C)n3)C(C)=NS2(=O)=O)cc1	inactive

Structure (SMILES)	Potency
O=C(NCCNc1cccnc1)C1CCC(=O)N(Cc2ccc(Cl)cc2)C1 (centres undefined)	inactive
CN(C)c1ccc2nnc(-c3cc(C(=O)Nc4cccc(Cl)c4)ccn3)n2n1	inconclusive: 56.2 µM [inhibitor, single point]
Cc1cc(C)cc(NC(=O)c2cc(S(=O)(=O)NCCC3=CCCCC3)ccc2F)c1	inconclusive: 39.8 µM [inhibitor, single point]
O=C(NCc1ccc(Cl)cc1)C1CCc2nnc(-c3cccc(C(F)(F)F)c3)n21 (centres undefined)	inactive
COc1ccc(Cl)cc1NC(=O)CCC1CCCN(C(=O)c2ccoc2C)C1 (centres undefined)	inactive
O=C(NCC1(COc2cccnc2)C[C@@H](O)[C@@H](O)C1)C1CC1 (some centres undefined)	inconclusive: 56.2 µM [inhibitor, single point]
CCn1ccc(C(=O)N2CCC(n3c(C)cnc3C3CCC3)C2)n1 (centres undefined)	inactive
CS(=O)(=O)Nc1cc(-c2noc([C@@H]3CCCN3Cc3ccccc3)n2)ccn1	inactive
Cc1ccc(-n2nc(C)c([C@H]3C=C[C@@H](OC(=O)N[C@H](C)c4ccccc4)C3)c2C)cc1Cl	inactive
NCc1ccc(-c2cccc(C(F)(F)F)c2)cc1	inconclusive: 28.2 µM [inhibitor, single point]
O=C(c1ccncc1)N1CCN(Cc2ccccc2-c2ccccc2F)CC1	inactive
COc1ccccc1-c1ccc(C(=O)N2CCC(NC(=O)c3ccc(Cl)nc3)CC2)cc1	inconclusive: 22.4 µM [inhibitor, single point] and inconclusive: 20 µM [inhibitor, partial curve, poor fit]
COc1cccc(Nc2ncc3c(n2)C(C)(C(=O)NCCN2CCOCC2)CC3)c1 (centres undefined)	inactive
Cc1cc(C)cc(NC(=O)Cn2nc3n(c2=O)CCCCC3)c1	inconclusive: 10 µM [inhibitor, partial curve]
COc1ccc(-c2cc(N3CCCC(NC(=O)c4cccc(C(F)(F)F)c4)C3)n[nH]2)cc1 (centres undefined)	inconclusive: 8.91 µM [inhibitor, partial curve, poor fit]
O=C(CCc1cccnc1)N1CC(COc2ccccc2)C2(C1)CN(c1ccccc1)C2 (centres undefined)	inactive
COCCO[C@H]1C(=O)N(C2CCN(C(=O)c3ccc4cc[nH]c4c3)CC2)[C@H]1c1ccncc1	inactive
O=C(c1cnc(N2CCCCC2)c2ccccc12)N1CCN(c2ccccc2F)CC1	inconclusive: 20 µM [inhibitor, single point]
Cc1ccc(CNC(=O)C2CCCN(c3cnn(C)c(=O)c3)C2)cc1 (centres undefined)	inactive
COc1ccc(S(=O)(=O)N2CC[C@H](NC(=O)Cc3cccs3)C[C@H]2C(=O)N[C@@H](CC2CCCCC2)C(N)=O)cc1	inactive
COc1cc(Cl)c(C)cc1NC(=O)Cn1cccc1-c1nc(-c2ccccc2)no1	inconclusive: 14.1 µM [inhibitor, single point]
O=C1NC2(CCCN(Cc3ccc(F)cc3)C2)COc2ccccc21 (centres undefined)	inactive
O=C(c1cccnn1)N1CC(F)(F)C[C@H]1c1nc(-c2ccccc2)no1	inconclusive: 39.8 µM [inhibitor, single point]

— PubChem BioAssay AID1671194 (National Center for Advancing Translational Sciences (NCATS), 2021)
